In US20230374090A1 (SURROZEN OPERATING, published 2023) one finds Kd, kon and koff data, which are given here for four molecules.

A word on the kon: it is the second-order rate constant of association. By koff is commonly meant a measure of how fast the partners let go of each other.

The target of assay [1] is T1, ASGR1 antigen (Homo sapiens (Human), UniProt P07306 62-291, Biotinylated for capture on streptavidin sensors; the site and manner of biotinylation are not stated in the passages seen.).
T1 construct: also called biotinylated ASGR1
T1 sequence: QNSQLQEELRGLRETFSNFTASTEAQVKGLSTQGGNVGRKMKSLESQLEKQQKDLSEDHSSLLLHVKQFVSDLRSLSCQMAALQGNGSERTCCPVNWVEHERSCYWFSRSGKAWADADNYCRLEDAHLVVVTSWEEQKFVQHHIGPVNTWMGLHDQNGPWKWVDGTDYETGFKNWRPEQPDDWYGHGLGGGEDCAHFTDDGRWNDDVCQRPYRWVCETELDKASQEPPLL
The assay is described as follows: ASGR1 binding assay, loading sample bio-ASGR1; Full R^2 0.998.

Assay [2] has as its target T1, ASGR1 antigen. The assay is described as follows: ASGR1 binding assay, loading sample bio-ASGR1; kdis(1/s); Full R^2 0.998.
For assay [3], the target named is T1, ASGR1 antigen. The assay is described as follows: binding to ASGR1 antigen (Octet binding per paragraph 285/paragraph 287; method not printed on the sheet). On the technique in general: Biolayer interferometry detects binding as a change in optical thickness at a sensor tip.
In assay [4] the target is T1, ASGR1 antigen. The assay is described as follows: BLI, Octet Red96e, biotinylated ASGR1 on streptavidin sensors, bivalent analyte model; Full R^2 0.998. An excerpt:
(§1) FIGS. 39A-C show binding of various Wnt signal enhancing molecules comprising the indicated combinations of point mutations as compared to the initial αASGR1-RSPO2 Wnt signaling enhancer molecule (NG or “wild type”). FIG. 39A is a table showing kinetic fir parameters from the data in FIGS. 39B and 39C. Data was fit using the bivalent analyte model in the ForteBIO Data Analysis Software. FIGS. 39B-39C provide data from serial dilutions of the various Wnt signal enhancing molecules tested for binding using biotinylated ASGR1 captured on streptavidin sensors using the Octet Red96e.

Assay [5] has as its target T1, ASGR1 antigen. The assay is described as follows: BLI, Octet Red96e, biotinylated ASGR1 on streptavidin sensors, bivalent analyte model; kdis(1/s); Full R^2 0.998.
From the text: as §1

In assay [6] the target is T1, ASGR1 antigen. The assay is described as follows: ASGR1 binding assay, loading sample bio-ASGR1; Full R^2 0.9971.
Assay [7] concerns the target T1, ASGR1 antigen. The assay is described as follows: ASGR1 binding assay, loading sample bio-ASGR1; kdis(1/s); Full R^2 0.9971.
Assay [8] addresses T1, ASGR1 antigen. The assay is described as follows: BLI, Octet Red96e, biotinylated ASGR1 on streptavidin sensors, bivalent analyte model; Full R^2 0.9971.
From the text: as §1

The target in assay [9] is T1, ASGR1 antigen. The assay is described as follows: BLI, Octet Red96e, biotinylated ASGR1 on streptavidin sensors, bivalent analyte model; kdis(1/s); Full R^2 0.9971.
From the text: as §1

The target in assay [10] is T1, ASGR1 antigen. The assay is described as follows: ASGR1 binding assay, loading sample bio-ASGR1; Full R^2 0.9917.
The target in assay [11] is T1, ASGR1 antigen. The assay is described as follows: ASGR1 binding assay, loading sample bio-ASGR1; kdis(1/s); Full R^2 0.9917.
The target in assay [12] is T1, ASGR1 antigen. The assay is described as follows: BLI, Octet Red96e, biotinylated ASGR1 on streptavidin sensors, bivalent analyte model; Full R^2 0.9917.
From the text: as §1

Assay [13] concerns the target T1, ASGR1 antigen. The assay is described as follows: BLI, Octet Red96e, biotinylated ASGR1 on streptavidin sensors, bivalent analyte model; kdis(1/s); Full R^2 0.9917.
From the text: as §1

For assay [14], the target named is T1, ASGR1 antigen. The assay is described as follows: ASGR1 binding assay, loading sample bio-ASGR1; Full R^2 0.9983.
Assay [15] concerns the target T1, ASGR1 antigen. The assay is described as follows: ASGR1 binding assay, loading sample bio-ASGR1; kdis(1/s); Full R^2 0.9983.
Assay [16] addresses T1, ASGR1 antigen. The assay is described as follows: BLI, Octet Red96e, biotinylated ASGR1 on streptavidin sensors, bivalent analyte model; Full R^2 0.9983.
From the text: as §1

Assay [17] deals with T1, ASGR1 antigen. The assay is described as follows: BLI, Octet Red96e, biotinylated ASGR1 on streptavidin sensors, bivalent analyte model; kdis(1/s); Full R^2 0.9983.
From the text: as §1

Substitutions are numbered along the chain they refer to. Names may count otherwise.

B1: 1R34-EESN/RA (other)
light: SSELTQDPAVSVALGQTVRITCQGESLRSYYASWYQQKPGQAPVLVIYGKSNRPSGIPDRFSGSSSGNTASLTITGAQAEDEADYYCNSLERIGYLSYVFGGGTKLTVLGQPKAAPSVTLFPPSSEELQANKATLVCLISDFYPGAVTVAWKADSSPVKAGVETTTPSKQSNNKYAASSYLSLTPEQWKSHRSYSCQVTHEGSTVEKTVAPTECS
heavy: NPICKGCLSCSKDNGCSRCQQKLFFFLRREGMRQYGECLHSCPSGYYGHRAPDMNRCARCRIENCDSCRSKDACTKCKVGFYLHRGRCFDECPDGFAPLEETMECVEGGGGSGGGGSGGGGS[… about 100 residues …][… about 120 residues …][… human IgG1 Fc with changes …]
notes: IgG1 N297G, RSPO2 F105R/F109A
For B1, the figures for the Kd in assay [1], in assay [3] and in [4] were 10.9 nM, 10.2 nM and 10.9 nM, respectively. The kon worked out at 365000 M⁻¹ s⁻¹ in assay [1], 224000 M⁻¹ s⁻¹ in assay [3] and 365000 M⁻¹ s⁻¹ in assay [4]. In addition, the results for the off-rate constant (koff) in [2], in assay [3] and in assay [5] were 0.00396 s⁻¹, 0.00228 s⁻¹ and 0.00396 s⁻¹, respectively.

B2: 1R34-EEAN/RA (other)
light: B1 light with S51A
heavy: NPICKGCLSCSKDNGCSRCQQKLFFFLRREGMRQYGECLHSCPSGYYGHRAPDMNRCARCRIENCDSCRSKDACTKCKVGFYLHRGRCFDECPDGFAPLEETMECVEGGGGSGGGGSGGGGS[… about 100 residues …][… about 120 residues …][… human IgG1 Fc with changes …]
notes: IgG1 N297G, RSPO2 F105R/F109A
As to B2, the Kd is 2740 nM in assay [6], 17.7 nM in assay [3] and 2740 nM in assay [8]. Also, the kon in assay [6] was found to be 338000 M⁻¹ s⁻¹; in assay [3], 193000 M⁻¹ s⁻¹; in assay [8] it was 338000 M⁻¹ s⁻¹. In addition, the values for the koff in assay [7], in assay [3] and in assay [9] were 0.926 s⁻¹, 0.00341 s⁻¹ and 0.926 s⁻¹, respectively.

B3: 1R34-EEAT/RA (other)
light: B1 light with S51A, N88T
heavy: NPICKGCLSCSKDNGCSRCQQKLFFFLRREGMRQYGECLHSCPSGYYGHRAPDMNRCARCRIENCDSCRSKDACTKCKVGFYLHRGRCFDECPDGFAPLEETMECVEGGGGSGGGGSGGGGS[… about 100 residues …][… about 120 residues …][… human IgG1 Fc with changes …]
notes: IgG1 N297G, RSPO2 F105R/F109A
Take B3: the Kd in assay [10] is 46.9 nM; in [3], 26.9 nM; in assay [12] it was 46.9 nM. The association rate constant (kon) in assay [10] was 155000 M⁻¹ s⁻¹; in assay [3], 148000 M⁻¹ s⁻¹; in assay [12] it was 155000 M⁻¹ s⁻¹. The off-rate (koff) in [11] came to 0.00725 s⁻¹; in assay [3] it was 0.00399 s⁻¹; in assay [13] it was 0.00725 s⁻¹.

B4: 1R34-EEST/RA (other)
light: B1 light with N88T
heavy: NPICKGCLSCSKDNGCSRCQQKLFFFLRREGMRQYGECLHSCPSGYYGHRAPDMNRCARCRIENCDSCRSKDACTKCKVGFYLHRGRCFDECPDGFAPLEETMECVEGGGGSGGGGSGGGGS[… about 100 residues …][… about 120 residues …][… human IgG1 Fc with changes …]
notes: Anti-ASGR1 IgG1 (N297G) with RSPO2 F105R/F109A fused to the N-terminus of each heavy chain; the heavy entry is the whole fusion; also called αASGR1-RSPO2-EEST-RA
On to B4, for which the results for the Kd in assay [14], in assay [3] and in [16] were 12.5 nM, 18.3 nM and 12.5 nM, respectively. The values for the kon in assay [14], in assay [3] and in assay [16] were 309000 M⁻¹ s⁻¹, 174000 M⁻¹ s⁻¹ and 309000 M⁻¹ s⁻¹, respectively. The dissociation rate constant (koff) in assay [15] was found to be 0.00384 s⁻¹; in assay [3] it was 0.00319 s⁻¹; in [17], 0.00384 s⁻¹.
